Results reported in the supplement of paper PMC4967469.
IC50 is the fitted dose that halves viability relative to control wells, and lower means more sensitive; fits outside the tested doses are given as limits. AUC, from the same fit, is the share of area under the viability curve across the 256-fold dose range: 1 means no effect, lower means more sensitive. For part of these data: Where the top dose is marked as inferred, it is not printed in the source and was worked back from the curve model. For part of these data: An entry number marks a drug with two screens in the source, which often give different values.

Assays:
Experiment in all cases: Viability of human cancer cell lines after 72 h of drug (GDSC screen)
[1] = compound: C[C@@H](N)c1ccc(C(=O)Nc2ccnc3[nH]ccc23)cc1 [Y-39983]; conditions: top dose 20 µM; top dose inferred
Method: (§1)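 Human cancer cell lines in 384-well plates, medium with 10% serum, drug for 72 h over a 256-fold dose range (nine 2-fold or five 4-fold steps up to the top dose). Adherent lines were fixed and stained with the nucleic acid dye Syto60, suspension lines read with resazurin; signal relative to control wells, capped at 0 and 100%. One two-parameter sigmoid per drug and line, fitted in a mixed model over all curves with the slope shared within a line.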

[2] = compound: CC(C)CC(=O)Nc1n[nH]c2c1CN(C(=O)C1CCN(C)CC1)C2(C)C [PHA-793887]; conditions: top dose 10.24 µM
Method: as §1

[3] = compound: C/C(=C\c1csc(C)n1)[C@@H]1C[C@@H]2O[C@]2(C)CCC[C@H](C)[C@H](O)[C@@H](C)C(=O)C(C)(C)[C@@H](O)CC(=O)O1 [Epothilone B]; conditions: top dose 0.032 µM; top dose inferred
Method: as §1

[4] = compound: NC(=O)Nc1sc(-c2ccc(F)cc2)cc1C(N)=O [TPCA-1]; conditions: top dose 20 µM
Method: as §1

[5] = compound: CCCS(=O)(=O)Nc1ccc(F)c(C(=O)c2c[nH]c3ncc(Cl)cc23)c1F [PLX4720]; conditions: top dose 10 µM
Method: as §1

[6] = screen: GDSC drug entry 1371, top dose inferred

Cell Line | AUC [1] | IC50 [1] [µM] | AUC [2] | IC50 [2] [µM] | AUC [3] | IC50 [3] [µM] | AUC [4] | IC50 [4] [µM] | AUC ([5]; screen: GDSC drug entry 1036) | IC50 ([5]; screen: GDSC drug entry 1036) [µM] | AUC [5, 6] | IC50 [5, 6] [µM]
LN-229 (glioma, adherent) | 0.967 | > 20 | 0.969 | > 10.2 | 0.697 | 0.00714 | 0.979 | > 20 | 0.97 | > 10 | 0.968 | > 10
LN-405 (glioma, adherent) | 0.963 | > 20 | 0.922 | > 10.2 | 0.913 | > 0.032 | 0.95 | > 20 | 0.925 | > 10 | 0.963 | > 10
LNZTA3WT4 (glioma, adherent) | 0.959 | > 20 | 0.987 | > 10.2 | 0.767 | 0.0116 | 0.943 | > 20 | 0.984 | > 10 | 0.987 | > 10
LOU-NH91 (lung squamous cell carcinoma, adherent) | 0.96 | > 20 | 0.986 | > 10.2 | 0.911 | > 0.032 | 0.945 | > 20 | 0.984 | > 10 | 0.953 | > 10
LS-180 (large intestine, adherent) | 0.983 | > 20 | 0.91 | > 10.2 | 0.353 | 0.000735 | 0.921 | > 20 | 0.929 | > 10 | 0.983 | > 10
LU-99A (large cell lung carcinoma, adherent) | 0.952 | > 20 | 0.977 | > 10.2 | 0.576 | 0.00321 | 0.855 | 15.7 |  |  | 0.972 | > 10
LU-135 (small cell lung carcinoma, suspension) | 0.908 | 19.4 | 0.608 | 1.2 | 0.253 | 0.000457 | 0.721 | 4.65 | 0.975 | > 10 | 0.992 | > 10
LoVo (large intestine, adherent) | 0.987 | > 20 | 0.987 | > 10.2 | 0.486 | 0.00183 | 0.955 | > 20 | 0.878 | > 10 | 0.984 | > 10
M14 (melanoma, adherent) | 0.947 | > 20 | 0.986 | > 10.2 | 0.87 | > 0.032 | 0.704 | 4.85 |  |  | 0.549 | 0.856
M059J (glioma, adherent) | 0.82 | 12.7 | 0.803 | 5.58 | 0.484 | 0.00181 | 0.765 | 7.93 | 0.967 | > 10 | 0.967 | > 10
MC-IXC (neuroblastoma, adherent) | 0.996 | > 20 | 0.872 | 5.57 | 0.584 | 0.0032 | 0.746 | 5 | 0.92 | 7.93 | 0.996 | > 10
MCF7 (breast, adherent) | 0.986 | > 20 | 0.986 | > 10.2 | 0.245 | 0.000356 | 0.986 | > 20 | 0.899 | > 10 | 0.985 | > 10
MDA-MB-157 (breast, adherent) | 0.974 | > 20 | 0.969 | > 10.2 | 0.967 | > 0.032 | 0.961 | > 20 | 0.898 | > 10 | 0.987 | > 10
MDA-MB-175-VII (breast, adherent) | 0.987 | > 20 | 0.955 | > 10.2 | 0.952 | > 0.032 | 0.987 | > 20 |  |  | 0.986 | > 10
MDA-MB-231 (breast, adherent) | 0.983 | > 20 | 0.971 | > 10.2 | 0.79 | 0.0152 | 0.986 | > 20 | 0.985 | > 10 | 0.985 | > 10
MDA-MB-330 (breast, adherent) | 0.969 | > 20 | 0.916 | > 10.2 | 0.867 | > 0.032 | 0.945 | > 20 | 0.982 | > 10 | 0.97 | > 10
MDA-MB-361 (breast, adherent) | 0.984 | > 20 | 0.976 | > 10.2 | 0.79 | 0.0142 | 0.958 | > 20 | 0.989 | > 10 | 0.984 | > 10
MDA-MB-415 (breast, adherent) | 0.981 | > 20 | 0.983 | > 10.2 | 0.818 | 0.0267 | 0.983 | > 20 | 0.983 | > 10 | 0.98 | > 10
